From publication PMC10346264
Read-outs that look alike come from different tables or passages of the source. These are yes or no findings as the source states them, for the method shown. In cells and extracts the contact can be indirect. Some results given as binding are weak or reduced against the parent protein; the word gives no strength. For some assays here: Tags and fused reporters may be left off the sequences shown.

Protein sequences, listed by entry. Tags and fused reporters are not part of them. Residues count along the entry.
UniProt Q9LVE2: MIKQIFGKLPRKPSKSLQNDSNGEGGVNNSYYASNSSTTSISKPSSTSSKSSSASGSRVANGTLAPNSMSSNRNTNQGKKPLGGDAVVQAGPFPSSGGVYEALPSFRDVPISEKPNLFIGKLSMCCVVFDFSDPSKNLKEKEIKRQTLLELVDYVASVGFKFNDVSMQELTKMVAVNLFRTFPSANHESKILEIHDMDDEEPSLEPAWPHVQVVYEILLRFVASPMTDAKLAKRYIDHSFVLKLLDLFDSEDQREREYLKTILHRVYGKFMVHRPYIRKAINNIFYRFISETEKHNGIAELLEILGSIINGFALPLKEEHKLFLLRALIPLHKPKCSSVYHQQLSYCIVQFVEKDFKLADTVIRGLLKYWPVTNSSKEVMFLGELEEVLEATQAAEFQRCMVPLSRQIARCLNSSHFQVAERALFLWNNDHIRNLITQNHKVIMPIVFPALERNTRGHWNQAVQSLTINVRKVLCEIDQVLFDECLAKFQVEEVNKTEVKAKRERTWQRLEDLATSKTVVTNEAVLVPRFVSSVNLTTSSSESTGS
UniProt P93033, residues 29-492: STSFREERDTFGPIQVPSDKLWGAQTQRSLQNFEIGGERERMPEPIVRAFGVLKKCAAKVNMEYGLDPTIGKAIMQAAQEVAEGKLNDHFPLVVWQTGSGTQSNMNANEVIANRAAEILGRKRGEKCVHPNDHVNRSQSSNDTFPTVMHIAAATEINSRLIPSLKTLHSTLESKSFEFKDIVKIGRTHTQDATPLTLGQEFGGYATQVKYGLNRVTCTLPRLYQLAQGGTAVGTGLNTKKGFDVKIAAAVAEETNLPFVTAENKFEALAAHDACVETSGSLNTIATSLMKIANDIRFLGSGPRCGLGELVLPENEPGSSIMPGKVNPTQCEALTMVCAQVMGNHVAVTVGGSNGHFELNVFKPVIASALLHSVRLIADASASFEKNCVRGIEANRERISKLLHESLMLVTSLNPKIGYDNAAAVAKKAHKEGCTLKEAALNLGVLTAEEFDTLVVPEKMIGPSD

What was measured:
[1] = target: PP2A regulatory subunit B’ζ fused to the C-terminal part of Venus (kanII-VYCE C155 construct) (Arabidopsis thaliana) (UniProt Q9LVE2); assay: split reporter; BiFC with split Venus (VYNE N173 / VYCE C155), transient expression in N. benthamiana leaves by Agrobacterium infiltration, analysed two days post infiltration, at least three independent experiments
[2] = target: PP2A regulatory subunit B’ζ fused to the C-terminal part of Venus (pUC-VYCE C155 construct) (Arabidopsis thaliana) (UniProt Q9LVE2); assay: split reporter; BiFC with split Venus (VYNE N173 / VYCE C155), gene gun delivery into onion epidermal cells, analysed one to two days after bombardment, at least three independent experiments
[3] = target: PP2A regulatory subunit B’ζ fused to the C-terminal part of Venus (kanII-VYCE C155 construct) (Arabidopsis thaliana) (UniProt Q9LVE2); assay: split reporter; BiFC with split Venus (VYNE N173 / VYCE C155), transient expression in N. benthamiana leaves by Agrobacterium infiltration, analysed two days post infiltration, at least three independent experiments; remark: listed apart in the source
[4] = target: PP2A regulatory subunit B’ζ fused to the C-terminal part of Venus (pUC-VYCE C155 construct) (Arabidopsis thaliana) (UniProt Q9LVE2); assay: split reporter; BiFC with split Venus (VYNE N173 / VYCE C155), gene gun delivery into onion epidermal cells, analysed one to two days after bombardment, at least three independent experiments; remark: listed apart in the source

“fumarase (FUM1) fused to the N-terminal Venus fragment (hygII-VYNE N173 construct) (from UniProt P93033 29-492) (enzyme)” was tested, and the binding [1] was “no binding”.

For “fumarase (FUM1) fused to the N-terminal Venus fragment (pUC-VYNE N173 construct) (from UniProt P93033 29-492) (enzyme)”, the binding [2] was “no binding”.

B1: mitochondrial malate dehydrogenase (mMDH2) fused to the N-terminal Venus fragment (hygII-VYNE N173 construct) (enzyme, UniProt Q9LKA3 23-341)
chain: ASESVPDRKVVILGAAGGIGQPLSLLMKLNPLVSSLSLYDIANTPGVAADVGHINTRSQVSGYMGDDDLGKALEGADLVIIPAGVPRKPGMTRDDLFNINAGIVKNLSIAIAKYCPQALVNMISNPVNSTVPIAAEIFKKAGTYDEKKLFGVTTLDVVRARTFYAGKSDVNVAEVNVPVVGGHAGITILPLFSQASPQANLSDDLIRALTKRTQDGGTEVVEAKAGKGSATLSMAYAGALFADACLKGLNGVPNVVECSFVQSTITELPFFASKVRLGKNGVEEVLDLGPLSDFEKEGLEALKAELKSSIEKGIKFANQ
For B1, the binding [3] was “binds”.

B2: aconitase (ACO3) fused to the N-terminal Venus fragment (pUC-VYNE N173 construct) (enzyme, UniProt Q9SIB9 79-990)
chain: VSPVLDRLQRTFSSMASEHPFKGIFTTLPKPGGGEFGKFYSLPALNDPRVDKLPYSIRILLESAIRNCDNFQVTKEDVEKIIDWEKTSPKQVEIPFKPARVLLQDFTGVPAVVDLACMRDAMNKLGSDSNKINPLVPVDLVIDHSVQVDVARSENAVQANMELEFQRNKERFAFLKWGSTAFQNMLVVPPGSGIVHQVNLEYLGRVVFNTKGLLYPDSVVGTDSHTTMIDGLGVAGWGVGGIEAEATMLGQPMSMVLPGVVGFKLAGKMRNGVTATDLVLTVTQMLRKHGVVGKFVEFYGNGMSGLSLADRATIANMSPEYGATMGFFPVDHVTLQYLKLTGRSDETVAMIEAYLRANNMFVDYNEPQQDRVYSSYLELNLDDVEPCISGPKRPHDRVTLKEMKADWHSCLDSKVGFKGFAIPKEAQEKVVNFSFDGQPAELKHGSVVIAAITSCTNTSNPSVMLGAGLVAKKACDLGLQVKPWIKTSLAPGSGVVTKYLLKSGLQEYLNEQGFNIVGYGCTTCIGNSGEINESVGAAITENDIVAAAVLSGNRNFEGRVHPLTRANYLASPPLVVAYALAGTVNIDFETEPIGKGKNGKDVFLRDIWPTTEEIAEVVQSSVLPDMFRATYESITKGNPMWNKLSVPENTLYSWDPNSTYIHEPPYFKDMTMDPPGPHNVKDAYCLLNFGDSITTDHISPAGNIQKDSPAAKFLMERGVDRKDFNSYGSRRGNDEIMARGTFANIRIVNKLMNGEVGPKTVHIPSGEKLSVFDAAMRYKSSGEDTIILAGAEYGSGSSRDWAAKGPMLQGVKAVIAKSFERIHRSNLVGMGIIPLCFKSGEDADTLGLTGHERYTIHLPTDISEIRPGQDVTVTTDNGKSFTCTVRFDTEVELAYFNHGGILPYVIRNLSKQ
With B2 the binding [4] was “binds”.

B3: citrate synthase (CSY5) fused to the N-terminal Venus fragment (hygII-VYNE N173 construct) (enzyme, UniProt Q9M1D3 26-464)
chain: SVRWLHSSELDLKSQMQEIIPEQQDRLKKLKSEQGKVPVGNITVDMVLGGMRGMTGLLWETSLLDADEGIRFRGMSIPECQKILPSAESGEEPLPESLLWLLLTGKVPTKEQANALSTELAHRAAVPAIDALPSTAHPMTQFASGVMALQVQSEFQKAYEQGDISKSKYWEPTFEDALNLIARVPVVASYVYRRMYKDGSIIPLDDSLDYGANFSHMLGFDSPQMKELMRLYVTIHSDHEGGNVSAHAGHLVGSALSDPYLSFAAALNGLAGPLHGLANQEVLLWIKLVVEECGESISKEQLKDYVWKTLNSGKVVPGYGHGVLRKTDPRYICQREFALKHLPDDPLFQLVSKLYEVVPPILTELGKVKNPWPNVDAHSGVLLNYYGLTEARYYTVLFGVSRSLGICSQLIWDRALGLPLERPKSVNMDWLDNFTRLNR
In the case of B3, the binding [3] is reported as “no binding”.

B4: succinate dehydrogenase (SDH2-1) fused to the N-terminal Venus fragment (hygII-VYNE N173 construct) (enzyme, UniProt Q8LBZ7 29-279)
chain: TSTGAEAETKASSGGGRGSNLKTFQIYRWNPDNPGKPELQNYQIDLKDCGPMVLDALIKIKNEMDPSLTFRRSCREGICGSCAMNIDGCNGLACLTKIQDEASETTITPLPHMFVIKDLVVDMTNFYNQYKSIEPWLKRKTPASVPAKEILQSKKDRAKLDGMYECILCACCSTSCPSYWWNPESYLGPAALLHANRWISDSRDEYTKERLEAIDDEFKLYRCHTILNCARACPKGLNPGKQITHIKQLQR
B4 was tested, and the binding [3] was “no binding”.

B5: citrate synthase (CSY5) fused to the N-terminal Venus fragment (pUC-VYNE N173 construct) (enzyme, UniProt Q9M1D3 26-464)
chain: B3 chain
With B5 the binding [4] was “no binding”.

B6: succinate dehydrogenase (SDH2-1) fused to the N-terminal Venus fragment (pUC-VYNE N173 construct) (enzyme, UniProt Q8LBZ7 29-279)
chain: B4 chain
In the case of B6, the binding [4] is reported as “no binding”.
